Source: PubChem BioAssay AID686979 (National Center for Advancing Translational Sciences (NCATS), 2013)
Out of some 420,000 compounds screened, about 50,000 (12%) were called active. This list was built around the results that the source calls inconclusive (neither active nor inactive); the mix of calls is not that of the screen. The call rests on the fitted dose curve; in most records, active means well fitted inhibition curve with a large enough effect; inconclusive means small, poorly fitted or top-dose-only effect; inactive means flat fitted curve, though single readings scatter. Potencies of inconclusive entries are left out as doubtful fits.

Test: qHTS for Inhibitors of human tyrosyl-DNA phosphodiesterase 1 (TDP1): qHTS in cells in presence of CPT; further: nearly all actives have a fitted effect of over 55% in size
Settings: chicken DT40 Tdp1-/-;hTDP1 cells + 20 nM CPT, ATP luminescence, 48 h; activity change, negative = growth inhibition: at 46.2 µM (top of the series)
In short: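 Chicken DT40 Tdp1-/- cells complemented with human TDP1, 400 cells/well, exposed to compounds plus 20 nM camptothecin for at least 48 h at 37 C; viability read as ATP content by CellTiter-Glo luminescence.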
On the % scale 0 is the no-effect control and ±100 the full control effect; potency means the concentration at half of the fitted maximal effect; tags describe the fitted curve by direction and shape.

| Compound | Potency | activity change, negative = growth inhibition |
| --- | --- | --- |
| CN(CCc1cn[nH]c1)Cc1nc(C(c2ccccc2)c2ccccc2)no1 | inconclusive [inhibitor, single point] |  |
| On1onc2c3cc(-c4ccccc4)nc3ccc21 | active: 2.91 µM |  |
| CCOc1cc(/C=N/Nc2cccc(C(=O)O)c2)ccc1OCC(=O)N1CCCCC1 |  | inactive: 5.84% |
| CC1CN(Cc2nc3ccccc3c(=O)[nH]2)CC(C)O1 (stereo not drawn) |  | inactive: -7.36% |
| CC(C)(C)c1cc(S(=O)(=O)CCc2ccccn2)cc(C(C)(C)C)c1F | active: 13 µM |  |
| Cc1cc(C(=O)COC(=O)C2=COCCO2)c(C)n1-c1ccccc1 | inconclusive [inhibitor, single point] |  |
| C(=N\Nc1nc2ccccc2[nH]1)/c1ccc2ncccc2c1 | inconclusive [inhibitor, full curve] |  |
| COc1ccccc1C(CCNS(=O)(=O)c1ccc(C)cc1)c1ccco1 (stereo not drawn) | inconclusive [inhibitor, single point] |  |
| CCc1ccc(NC(=O)C(Cc2ccccc2)NS(=O)(=O)c2ccc3c(c2)c(=O)n(C)c(=O)n3C)cc1 (stereo not drawn) | inconclusive [inhibitor, partial curve, poor fit] |  |
| CCN(CC)CCNC(=O)c1sc2nc(-c3ccccc3)cn2c1C |  | inactive: -28.1% |
| CCCOc1ccc(Oc2nc(NCC(C)C)nc(N(C)C)n2)nn1 | inconclusive [inhibitor, single point] |  |
| Cc1ccccc1NC(=O)C(C)Sc1nnc(CN2CCCC2)n1Cc1ccccc1 (stereo not drawn) | inconclusive [inhibitor, single point] |  |
| CCc1ccc(N/C(SCc2cccc(F)c2)=C(/C#N)C(=O)NCc2ccco2)cc1 | inconclusive [inhibitor, partial curve] |  |
| Cc1ccc(S(=O)(=O)/N=C(\CN2CCOCC2)N2CCCC2)cc1 |  | inactive: 0.69% |
| Oc1cccc(/C=N\Nc2nncc(-c3ccccc3)n2)c1 | inconclusive [inhibitor, partial curve] |  |
| Cc1c(NC(=O)C(C)OC(=O)CCC2CCCC2)c(=O)n(-c2ccccc2)n1C (stereo not drawn) |  | inactive: -1.85% |
| c1ccc(CCc2nnc3n2CCN(Cc2ccc4ccccc4n2)CC3)cc1 |  | inconclusive: -31.4% [inhibitor] |
| Cc1ccc2cc(CN(C(=O)c3ccco3)c3ccccc3C)c(=O)[nH]c2c1 | inconclusive [inhibitor, single point] |  |
| Cc1nc(-n2nc(C)c(CCC(C)C)c2C)sc1C(=O)Nc1cccc(Cl)c1 | inconclusive [inhibitor, single point] |  |

| Compound | Potency | activity change, negative = growth inhibition |
| --- | --- | --- |
| CCSc1nc2cc(C(=O)OC)ccc2c(=O)n1CC |  | inactive: -23.2% |
| CC1CCc2cc(F)ccc2N1C(=O)CCC(=O)O (stereo not drawn) |  | inactive: -4.7% |
| CCOC(=O)N1CCN(C(=O)c2ccc(N(Cc3ccccc3Cl)S(C)(=O)=O)cc2)CC1 | inconclusive [inhibitor, single point] |  |
| CC(Oc1ccc(F)cc1)C(=O)Nc1cc(S(=O)(=O)N2CCCCC2)ccc1N1CCOCC1 (stereo not drawn) |  | inactive: -7.9% |
| O=C1[C@@H](Oc2ccccc2)[C@@H](c2cccnc2)N1c1ccccc1 | active: 20.6 µM |  |
| CCC(C(=O)Nc1ccc(C)c(Cl)c1)n1c(=O)c(-c2ccccc2NC(C)=O)nc2ccccc21 (stereo not drawn) | active: 20.6 µM |  |
| CSc1ncc(C(=O)Nc2ccccc2)cn1 | inconclusive [inhibitor, single point] |  |
| O=c1cc(Cl)[nH]c(=O)n1CCNc1ncc(C(F)(F)F)cc1Cl |  | inconclusive: -35.5% [inhibitor] |
| c1cnc2c(C3NCCc4c3[nH]c3ccccc43)cccc2c1 (stereo not drawn) |  | inconclusive: -32.2% [inhibitor] |
| CC(C)C[C@H]1COc2cccc(N3CCSCC3)c2S(=O)(=O)N1 |  | inactive: -24.5% |
| Cc1ccc(/C([O-])=C(/C(=S)NCc2ccccc2)[n+]2cccc(CO)c2)cc1[N+](=O)[O-] |  | inactive: -1.63% |
| CNc1cc(-c2ccc(CC#N)cc2)ncn1 |  | inactive: -1.73% |
| O=C1C(O)=C(O)C(=O)C(O)=C1O |  | inactive: -5.61% |
| Clc1ccc(NCc2nc3ccccc3n2CCOc2ccccc2)cc1 | active: 13 µM |  |
| O=[N+]([O-])c1ccc(N/N=C/c2ccccc2)c(F)c1 |  | inactive: -24.1% |
| Cc1c(Cl)cccc1NC(=S)NCc1ccc(F)cc1 | inconclusive [inhibitor, single point] |  |
| CCOC(=O)c1sc(=S)n(C)c1NC(=O)c1ccc(C(C)(C)C)cc1 |  | inconclusive: -33.1% [inhibitor] |
| COc1ccc(C(=O)N/N=C/C2CC=CCC2)cc1OC (stereo not drawn) |  | inactive: -3.98% |
| CC(C)CN(C(=O)Cn1nnc(-c2ccc(F)cc2)n1)C1CCS(=O)(=O)C1 (stereo not drawn) |  | inactive: -11.7% |
